The values that follow come from PubChem BioAssay AID248 (DTP/NCI, 2004).

This assay deals with L1210 leukemia ip in BDF1 mice, survival T/C. The assay is described as follows: NCI In Vivo Anticancer Drug Screen. Data for tumor model L1210 Leukemia (intraperitoneal) in B6D2F1 (BDF1) mice. As to conditions: endpoint: mean survival time, higher = longer survival.

Toxic doses and inconclusive results are not listed. Not every entry of the source has a single result; some have several. Only these are listed. The source may hold further records. The records of an entry are repeated measurements (runs, samples, wells, individuals or studies).

`CC1(COCCOCC2(C)CO2)CO1` (configuration not stated): the T/C (dose: 600.0 mg/kg/injection, schedule: Q01DX009 (ip), vehicle: saline) was 123 % of control and 167 % of control. Turning to `CS(=O)(=O)OCCN(CCOS(C)(=O)=O)c1ccc(C=Nc2cccc(Cl)c2)cc1`, the T/C (dose: 40.0 mg/kg/injection, schedule: Q04DX003 (ip), vehicle: Klucel (hydroxypropylcellulose) (HPC)) is 120 % of control and 158 % of control.
